{"source": "PubChem BioAssay AID686971", "about": "(National Center for Advancing Translational Sciences (NCATS), 2013)", "note": "“And” between values parts separate entries of the source, which are not always exact repeats. Equal values may be shown once. In all, about 360,000 compounds went through this assay and about 7,500 (2.1%) were called active. The inconclusive results got no clear call from the source; some entries with a clear call stand among them for comparison. Calls come from the whole dose curve; as a rule, active = well fitted cell-killing curve with a large enough effect; inconclusive = small, poorly fitted or top-dose-only effect, or effect the other way, or another doubt; inactive = no such curve, though single readings can be large or run the other way. Potencies of inconclusive entries are left out as doubtful fits. Potency is the fitted concentration of half-maximal effect; tags give direction and shape of the fitted curve."}
{"experiment": "qHTS for induction of synthetic lethality in tumor cells producing 2HG: qHTS for the HT-1080-IDH1KD cell line;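 for activity, negative = toxicity: 0% = DMSO wells and -100% = cell-free medium wells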", "conditions": "HT-1080 IDH1 knockdown viability, ATP luminescence, 48 h; activity, negative = toxicity: at 46.1 µM (top of the series) unless noted", "outline": "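IDH1KD HT-1080 cells, 750/well, RPMI + 5% FBS; compound pinned after 2 h settling; 48 h, 37 °C; CellTiter-Glo luminescence; % activity normalised to DMSO and no-cell wells; curves fitted, classed by r2 and efficacy.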"}
{"smiles": "O=C(O)CCCCCNS(=O)(=O)c1cccc2c1C(=O)c1ccccc1C2=O", "Potency": "inconclusive [cytotoxic, single point]"}
{"smiles": "COc1ccc(NC(=O)Cc2ccc(Cl)c(Cl)c2)cn1", "activity, negative = toxicity": "inactive: -1.85%"}
{"smiles": "Cc1ccc(N(C(=O)c2snc(C(N)=O)c2N)C(C(=O)NCC2CCCO2)c2c[nH]c3ccccc23)cc1", "note": "(stereo not given)", "activity, negative = toxicity": "inconclusive: -31.3% [cytotoxic]"}
{"smiles": "COc1ccc(-c2csc3nc(C)nc(N4CCC(C)CC4)c23)cc1OC", "Potency": "inconclusive [cytotoxic, single point]"}
{"smiles": "COc1cc(/C=C(/C(=O)c2cccs2)c2nc3ccccc3[nH]2)cc(OC)c1O", "Potency": "inconclusive [cytotoxic, single point]"}
{"smiles": "C/C(=N\\NC(=O)c1cc(O)ccc1O)c1cccc(NC(=O)c2ccc(Cl)cc2)c1", "Potency": "inconclusive [cytotoxic, single point]"}
{"smiles": "O=C(Nc1ccccc1C(F)(F)F)c1ccc(CN2CCC(Cc3ccccc3)CC2)cc1", "Potency": "active: 23.1 µM"}
{"smiles": "Cc1cc(/C=C(\\C#N)C(=O)Nc2ccccc2)c(C)n1-c1ccc2c(c1)OCO2", "Potency": "inconclusive [cytotoxic, single point]"}
{"smiles": "CCOC(=O)N1CC=C2C(C#N)=C(N)C(C#N)(C#N)[C@H](c3ccc(OCC)c(OCC)c3)[C@H]2C1", "Potency": "inconclusive [cytotoxic, single point]"}
{"smiles": "CCN(CC)c1ccc(/C=N/NC(=O)c2cccc(S(=O)(=O)Nc3ccccc3OC)c2)c(O)c1", "Potency": "inconclusive [cytotoxic, full curve, poor fit]"}
{"smiles": "c1ccc(C2CCCN(Cc3nc(CC4CC4)no3)CC2)cc1", "note": "(stereo not given)", "activity, negative = toxicity": "inactive: -11.9%"}
{"smiles": "O=C(C[n+]1ccc2ccccc2c1)c1ccc2ccc3ccccc3c2c1", "Potency": "inconclusive [cytotoxic, single point]"}
{"smiles": "CN(Cc1ccccc1)C(=O)c1cccc(NC(=O)Cc2ccc(NC(=O)C3CCN(C(=O)C4CCCCC4)CC3)cc2)c1", "Potency": "inconclusive [cytotoxic, single point]"}
{"smiles": "O=C(Nc1cccc2ncccc12)c1ccc(-c2ccc(Br)cc2)o1", "Potency": "inconclusive [cytotoxic, single point]"}
{"smiles": "COC(=O)[C@@]1(Cc2ccc(F)cc2)[C@H]2c3cc(C(=O)N(C)C)n(Cc4ccc(Cl)c(C(F)(F)F)c4)c3C[C@H]2CN1C(=O)c1ccccc1", "Potency": "inconclusive [cytotoxic, single point]"}
{"smiles": "Cc1ccc(SCCN2CCC(O)CCC2=O)cc1", "note": "(stereo not given)", "activity, negative = toxicity": "inactive: 6.41%"}
{"smiles": "Cc1cc(OC(C)C)nc(NCc2ccccc2)n1", "Potency": "inconclusive [cytotoxic, partial curve]"}
{"smiles": "CCc1ccc(OC)c(S(=O)(=O)Nc2ccc(Cc3ccncc3)cc2)c1", "Potency": "inconclusive [cytotoxic, single point]"}
{"smiles": "CCCC/C(C)=N/NC(=O)c1cn(-c2ccccc2)nc1-c1ccccc1", "Potency": "inconclusive [cytotoxic, single point]"}
{"smiles": "CC(=O)N1CCc2cc(S(=O)(=O)CCC(=O)Nc3ccc(Cl)cc3F)ccc21", "activity, negative = toxicity": "inactive: 2.23%"}
{"smiles": "CCC1(C)Cc2sc3c(=O)[nH]c(=S)[nH]c3c2CO1", "note": "(stereo not given)", "activity, negative = toxicity": "inconclusive: -16.4% [cytotoxic]"}
{"smiles": "CCCCCOC(=O)C1=C(C)Nc2nnnn2C1c1ccc(OC)c(OC)c1OC", "note": "(stereo not given)", "Potency": "inconclusive [cytotoxic, single point]"}
{"smiles": "COc1ccc(-c2csc(Nc3ccc(C)cn3)n2)cc1OC", "Potency": "inconclusive [cytotoxic, single point]"}
{"smiles": "Cc1ccc(C(=O)Nc2ccccc2C(=O)NCc2ccco2)cc1", "activity, negative = toxicity": "inactive: -1.59%"}
{"smiles": "Cc1ccc(N/C(N)=N/c2nc(C)cc(N3CCCCC3)n2)c(C)c1", "Potency": "inconclusive [cytotoxic, single point]"}
{"smiles": "O=C(CN1CCC(C(=O)c2ccc(F)cc2)CC1)Nc1ccccc1", "Potency": "inconclusive [cytotoxic, single point]"}
{"smiles": "O=C(Nc1ccc([N+](=O)[O-])cc1Br)c1cccnc1", "activity, negative = toxicity": "inactive: 17.7%"}
{"smiles": "CC1(C(=O)NS(=O)(=O)c2ccccc2)CCN1C(=O)CC1CCCC1", "note": "(stereo not given)", "Potency": "inconclusive [cytotoxic, single point]"}
{"smiles": "O=S(=O)(c1ccc(Cl)cc1)N1CCC(n2cnc3cc(C(F)(F)F)ccc32)CC1", "activity, negative = toxicity": "inactive: 12.9%"}
{"smiles": "CCN(CCCNC(=O)Cn1ncc2c(=O)oc3ccccc3c21)c1cccc(C)c1", "Potency": "inconclusive [cytotoxic, single point]"}
{"smiles": "Cc1ccc(OCC(=O)N/N=C\\c2ccc(-c3cccc(C(=O)O)c3)o2)c(C)c1", "activity, negative = toxicity": "inactive: 1.09%"}
{"smiles": "C=CCN=c1scc(-c2ccccc2)n1/N=C/c1ccccn1", "Potency": "active: 2.59 µM and active: 18.4 µM"}
{"smiles": "O=C1C=C(NCc2ccco2)CCC1", "Potency": "inconclusive [rising, partial curve, poor fit]"}
{"smiles": "Cn1c(-[n+]2c(-c3ccccc3)cc(-c3ccccc3)cc2-c2ccccc2)nc2c([N+](=O)[O-])cccc21", "Potency": "inconclusive [cytotoxic, single point]"}
{"smiles": "CC1=NC(=O)C(N=Nc2cccc(O)c2)N1c1ccccc1", "note": "(stereo not given)", "Potency": "inconclusive [cytotoxic, single point]"}
